Test results from article PMC5155276.
Results are given in words; binding and its absence hold for the method and conditions named. Binding seen in cells or lysates may run through a third protein. Some binding calls cover weakened binding; strength is not graded here. For part of these data: Where a sequence is shown, tags or fusion partners need not be part of it.

By UniProt entry, the sequences of proteins in these tests, tags left out.
UniProt P25025: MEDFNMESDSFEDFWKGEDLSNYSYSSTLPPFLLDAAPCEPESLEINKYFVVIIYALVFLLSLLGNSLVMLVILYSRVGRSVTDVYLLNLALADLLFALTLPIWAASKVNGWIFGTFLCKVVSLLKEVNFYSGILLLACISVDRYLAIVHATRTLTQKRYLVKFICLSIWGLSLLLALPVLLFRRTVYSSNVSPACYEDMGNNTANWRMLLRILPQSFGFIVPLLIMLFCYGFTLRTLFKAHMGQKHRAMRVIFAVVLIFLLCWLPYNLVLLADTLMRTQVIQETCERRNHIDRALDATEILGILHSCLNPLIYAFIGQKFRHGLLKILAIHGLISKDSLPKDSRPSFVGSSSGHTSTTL
UniProt Q96HR9: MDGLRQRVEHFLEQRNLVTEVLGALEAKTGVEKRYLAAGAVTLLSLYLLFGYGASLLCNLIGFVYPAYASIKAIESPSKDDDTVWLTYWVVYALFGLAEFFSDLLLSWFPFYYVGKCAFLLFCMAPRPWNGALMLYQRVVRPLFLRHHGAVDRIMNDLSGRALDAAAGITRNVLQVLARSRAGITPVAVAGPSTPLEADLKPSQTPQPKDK
UniProt Q00765: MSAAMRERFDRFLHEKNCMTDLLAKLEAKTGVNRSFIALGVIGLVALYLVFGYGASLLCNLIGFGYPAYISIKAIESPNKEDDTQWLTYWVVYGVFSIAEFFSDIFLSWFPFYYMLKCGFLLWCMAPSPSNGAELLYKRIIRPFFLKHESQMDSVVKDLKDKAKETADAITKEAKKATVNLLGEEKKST

Columns and labels:
[1] = target: T1, HA-tagged CXCR1 (human (PCR from genomic DNA of HEK293 cells)) (UniProt P25024); test: co-IP; HEK293 cells co-transfected with HA-tagged CXCRs and REEP plasmids; lysis in 50 mM Tris-HCl pH 7.5, 150 mM NaCl, 1% Triton X-100; anti-HA antibody-conjugated beads, 4 °C, 2 h; western blotting; in Fig. 5B cells were treated with IL-8 for the indicated times before lysis
T1 sequence: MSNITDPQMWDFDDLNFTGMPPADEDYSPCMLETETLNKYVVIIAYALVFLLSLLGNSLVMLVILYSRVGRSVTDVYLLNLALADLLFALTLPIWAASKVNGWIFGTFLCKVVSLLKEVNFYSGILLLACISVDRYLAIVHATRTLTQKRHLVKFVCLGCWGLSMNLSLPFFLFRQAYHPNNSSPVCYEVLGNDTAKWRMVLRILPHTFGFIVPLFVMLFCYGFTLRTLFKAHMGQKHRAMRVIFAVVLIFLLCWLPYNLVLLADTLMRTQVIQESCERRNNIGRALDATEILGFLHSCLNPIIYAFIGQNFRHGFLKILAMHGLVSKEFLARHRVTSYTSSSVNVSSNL

[2] = target: HA-tagged CXCR2 (human (PCR from genomic DNA of HEK293 cells)) (UniProt P25025); test: as above
REEP6 (human) = REEP6 (human) (UniProt Q96HR9); test: co-IP; immunoprecipitation with cells expressing both REEP5 and REEP6 (Supplementary Fig. S2); bait and tags not shown

binding [1] | binding [2] | binding (REEP6 (human)) | Substance
binds | – | – | FLAG-REEP6 (from UniProt Q96HR9 1-211)
binds | no binding | binds | REEP5 (from UniProt Q00765 1-189)
binds | no binding | – | REEP6 (from UniProt Q96HR9 1-211)
